The supplement of paper PMC5499739
Whole data set: some 16,000 sequences, median “Z-score” near -0.37, cut for the highest 2% near 3.1. Some of the results follow.

System: RBM10 RRM1-ZnF-RRM2 (GST-tagged construct)
Experiment: RNAcompete 7-mer binding Z-score; higher = stronger binding preference
Description: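 RNAcompete: 20 pmol GST-tagged RBM10 RNA-binding constructs were incubated with a designed RNA pool of about 241,000 sequences up to 41 nt (1.5 nmol) on glutathione beads for 30 min at 4 °C and washed. Bound RNAs were identified by microarray hybridisation. Each RNA 7-mer is scored by a one-sided Z-score of its enrichment, computed over probes that contain the 7-mer within longer pool sequences.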

| Sequence | RNAcompete 7-mer binding Z-score |
| --- | --- |
| AUCAGAG | 0.508 |
| AGAUAUC | -0.653 |
| GCGACUU | -0.533 |
| GGACCAG | 0.884 |
| CGUCUCA | -0.708 |
| GUAUAUC | -0.235 |
| UCUUUCA | -0.694 |
| UUUUGCG | -0.737 |
| AUUAUAU | -0.362 |
| UCGUUGC | -0.588 |
| UUUCGAG | -0.311 |
| UUGCGGC | -0.0998 |
| AAUUAGU | -0.238 |
| CAUGCGA | -0.00148 |
| GGAUGGA | 3.36 |
| UUGGCAG | 0.629 |
| CCUCCCG | -0.737 |
| GGAUUGU | 0.822 |
| CCGUCCC | -0.643 |
| UAAUAAU | -0.449 |
| CCAAUGG | 0.68 |
| ACACCGU | -0.49 |
| UCGGAUA | 0.184 |
| GCUACCA | -0.515 |

| Sequence | RNAcompete 7-mer binding Z-score |
| --- | --- |
| UGGGACC | 1.52 |
| GUGUCGU | 0.181 |
| CUUGUUU | -0.836 |
| AAUUAGA | -0.216 |
| AAUGUCC | -0.544 |
| CACGAAU | -0.449 |
| AAUUCUG | -0.632 |
| GGUGUAA | 1.64 |
| GCCUUUC | -0.879 |
| UAACGCU | -0.646 |
| UUGGGAU | 1.9 |
| UUUCGUC | -0.726 |
| UACACAU | -0.5 |
| CACCAGU | -0.519 |
| UAUAUCC | -0.57 |
| GCGAUUG | 0.148 |
| GUACUCG | -0.282 |
| UUAAGCG | -0.424 |
| AUCUCGC | -0.894 |
| CGAACAC | -0.38 |
| GACACAC | -0.205 |
| GAAGUAA | 0.589 |
| AGGCGUU | 0.286 |
| UGGAUGA | 1.82 |

| Sequence | RNAcompete 7-mer binding Z-score |
| --- | --- |
| GAGAUAG | 1.31 |
| GCAUAAU | -0.439 |
| AAGCGUG | 0.676 |
| ACUGUUA | -0.595 |
| GGCCGCU | -0.424 |
| CCAGUAG | -0.114 |
| CCCUCGC | -0.646 |
| UCAAGUU | -0.468 |
| GACCAGU | -0.409 |
| UUGUCUU | -0.803 |
| AUGUUCC | -0.701 |
| UUGUCGG | -0.0743 |
| CUGCCCG | -0.541 |
| UAAUAUA | -0.347 |
| UGUGGGG | 3.75 |
| CAAGAGU | 0.348 |
| UUGUACU | -0.81 |
| GCUGACA | -0.289 |
| GUACCAU | -0.18 |
| UGGGGGG | 3.39 |
| UUGGUAC | 0.53 |
| UUUCGCU | -0.806 |
| GGGUGCU | 1.87 |
| AAACCAU | -0.431 |

| Sequence | RNAcompete 7-mer binding Z-score |
| --- | --- |
| AUCAUUC | -0.734 |
| ACAGAGA | 0.192 |
| AGAGUGA | 1.02 |
| CUAAUUA | -0.726 |
| UUAUGUA | -0.42 |
| UGAUGAC | -0.311 |
| UGAGUUG | 0.534 |
| CGCAGCG | 0.341 |
| AAGCCGA | -0.504 |
| GUCCGGG | 0.698 |
| UGGCCUU | -0.577 |
| AUGACCU | -0.788 |
| GAUGUAU | 0.275 |
| AAAAGAA | 0.0641 |
| UGCCAUU | -0.923 |
| AGGCUGU | -0.326 |
| UUGAACC | -0.588 |
| CACUCCU | -0.828 |
| GUCGGCG | 0.548 |
| CGCGUCG | -0.125 |
| AGUAUCC | -0.573 |
| CGCCAAC | -0.661 |
| AUGUGAA | 0.629 |
| ACAUCUC | -0.872 |

| Sequence | RNAcompete 7-mer binding Z-score |
| --- | --- |
| GAGUUCC | -0.537 |
| ACGAUCC | -0.701 |
| CUAGGAC | 0.25 |
| GGAAGUA | 1.5 |
| AUACUGA | -0.202 |
| GCCAUUA | -0.588 |
| GAUUAAA | -0.198 |
| AGCCACG | -0.125 |
| AGUGCUU | -0.592 |
| GCAGGGC | 1.51 |
| UCCCUUU | -0.959 |
| UGACUGU | -0.708 |
| UACGGUA | 0.763 |
| AGGACUC | -0.373 |
| CUGGCCC | -0.497 |
| GGCUACG | 0.523 |
| UUGAUGC | -0.544 |
| CCCAGCC | -0.679 |
| GGUCGUG | 1.32 |
| CUCCGUC | -0.894 |
| UGAAUAC | -0.49 |
| CGCCAUA | -0.632 |
| CUUCCAU | -0.799 |
| CUUUUUU | -0.85 |

| Sequence | RNAcompete 7-mer binding Z-score |
| --- | --- |
| AACACGA | -0.231 |
| AGAGGAC | 0.632 |
| CAAUGUU | -0.504 |
| UGAACAU | -0.198 |
| GUUGCGC | 0.0204 |
| CACAUAA | -0.672 |
| UUCCUCU | -0.734 |
| UGCGACA | -0.213 |
| UCUGAGG | -0.122 |
| GAUUACC | -0.537 |
| GACCUGG | -0.431 |
| AUUUAAC | -0.694 |
| GACGUCG | -0.286 |
| ACAACGG | 1.03 |
| CCCCUGU | -0.646 |
| ACUUUAA | -0.883 |
| CCCUCGU | -0.741 |
| GCGCCUA | -0.828 |
| ACCGCUG | -0.635 |
| AGGGGCA | 2.36 |
| GCAUGAA | 0.101 |
| GUGUUUA | 0.0422 |
| UAGAGUC | -0.00148 |
| UAUGACA | -0.267 |

| Sequence | RNAcompete 7-mer binding Z-score |
| --- | --- |
| UUGGAGG | 2.78 |
| UUGCAAU | -0.577 |
| CUAAAGA | -0.315 |
| UGCACCC | -0.664 |
| GAUUCCA | -0.519 |
| UGUUCCG | -0.573 |
| UAACAGC | -0.224 |
| AGAGAGA | 0.428 |
| UUCGCAC | -0.646 |
| UCUCCCG | -0.617 |
| GAAUAUU | -0.253 |
| GGAUUAU | 0.683 |
| AUAGUGG | 1.69 |
| CACUCAA | -0.624 |
| GUACUAC | -0.344 |
| UGGACGA | 1.66 |
| UGAUUUG | -0.417 |
| AUACUAG | -0.307 |
| GCUUUCC | -0.817 |
| UCCGAGU | -0.548 |
| CGUUAUC | -0.817 |
| GACACUA | -0.307 |
| ACGAUAU | -0.275 |
| UUACAGA | -0.322 |

| Sequence | RNAcompete 7-mer binding Z-score |
| --- | --- |
| AUGUCGC | -0.573 |
| GAUCUGC | -0.828 |
| GAAGCUA | -0.0707 |
| CAUUUAC | -0.821 |
| GUUUCGA | -0.216 |
| GCUCAGG | 0.301 |
| ACGUAUC | -0.439 |
| GAGACUA | -0.278 |
| GCCUCCC | -0.741 |
| ACAAUUG | -0.198 |
| CACAACC | -0.5 |
| UAGGAAU | 1.14 |
| UCUCCGC | -0.704 |
| CUCGACG | -0.555 |
| CCUGAUU | -0.941 |
| CUGUGAA | -0.366 |
| GCCUUAU | -0.916 |
| CCUUGGC | -0.653 |
| ACUGCGG | 0.253 |
| GAUCAGA | 0.494 |
| AACCACA | -0.275 |
| UAGAACC | -0.497 |
| GUCACUU | -0.726 |
| CUCAUAC | -0.712 |

| Sequence | RNAcompete 7-mer binding Z-score |
| --- | --- |
| UUAGCGA | 0.0459 |
| CUGCAUG | -0.548 |
| AGUGUUG | 0.661 |
| ACCUACA | -0.814 |
| CCCAAUC | -0.712 |
| AACUCGG | -0.26 |
| GGAUAGU | 1.63 |
| GGUUUAU | 0.137 |
| GGGAUAU | 2.85 |
| UGUUACU | -0.679 |
| GGAACGA | 1.75 |
| CAGAACG | -0.0525 |
| CUUCAGU | -0.493 |
| UCACGAG | -0.26 |
| AUCCGCU | -0.828 |
| UAAUGGG | 2.89 |
| GGCCCAC | -0.806 |
| CCUUACG | -0.846 |
| UAUACAG | -0.118 |
| GCCUCUU | -1.01 |
| ACAGUGC | 0.275 |
| AUGGAUC | 0.756 |
| CUGCGAC | -0.657 |
| CACCCUU | -0.934 |

| Sequence | RNAcompete 7-mer binding Z-score |
| --- | --- |
| AGGUAUG | 1.95 |
| UGAUCAG | 0.0568 |
| AGAGGCG | 0.658 |
| UUUCUAU | -0.763 |
| CUACUAG | -0.584 |
| UCCACUC | -0.894 |
| UCGGCCC | -0.785 |
| UUGGAGC | 1.01 |
| UCUGACA | -0.69 |
| CACUGAA | -0.377 |
| CUCACGU | -0.701 |
| UACUCGG | -0.391 |
| CCUGCAA | -0.73 |
| AUAUGUG | 0.508 |
| CUUAGGU | -0.388 |
| CGCGGUC | -0.238 |
| UCGCACA | -0.475 |
| UUGAAAG | 0.192 |
